± gives the standard deviation of the averaged measurements. Some of the results follow.
Tested on: PfAP2-EXP AP2 domain (GST-tagged)
Assay: gcPBM binding intensity (ln(normalized median fluorescence intensity)); higher = stronger DNA binding
Outline: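 Binding of GST-tagged P. falciparum DNA-binding domains, expressed in E. coli and used at about 25 μg on average, was carried out for 1 h in 1× PBS containing 1% milk, 0.2 mg/ml BSA, 0.5% salmon testes DNA and 0.03% Triton X-100. The target was an Agilent 4 × 180k array of primer-extended double-stranded 36-bp intergenic genomic probes plus negative controls, read with Alexa488 anti-GST antibody at 488 nm. Binding intensity is the highest Masliner-normalised natural-log median intensity across replicate spots of either probe orientation.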

Sequence	gcPBM binding intensity (ln)
TCAAAAGAATAATTGGTGCAAATTATATAATATAAT [GTGCAC_site9804]	8.73 ± 0.19
CTTTTTTATATCTCTACACACATTTATAACCATTTG [CACACA_site4897]	8.76 ± 0.52
ATACATTTATTGTATTGTACATAATATTATATATTC [XGTACX_site7115]	8.6 ± 0.35
TATTTTAAAAAAAAAAGTACACATAATATATATAAC [XGTACX_site5416]	8.64 ± 0.26
TAATATAATGATGCAGTGCATATGTTAAAATGAAAA	8.97 ± 0.25
TAATATAATAGAAGTGTACACACATATTTATGGGTG [CACACA_site9023]	8.78 ± 0.28
AATTAGATTTACTGAAGTACTTAATTTATTTTATTA [XGTACX_site3407]	8.85 ± 0.34
AATAATCTATATTGTACACACAAAATGGGAAAAAAA [CACACA_site6969]	8.81 ± 0.36
AGGTACTTTTTTAAAACACACATATAACATATACAC [CACACA_site6629]	8.76 ± 0.28
ACCCCCAATACGGAAACACACAAGTTATTTTATCAT [CACACA_site8874]	9.78 ± 0.66
TTAAATGAAAAATGGGGTACATATATACAAATATAT [XGTACX_site5931]	8.61 ± 0.42
TGTTTATTTTTAAAAAGTACATATATAAAAAATATC [XGTACX_site4902]	8.6 ± 0.13
ATAATTTGGAAACACACACACACACCCACATATATA [CACACA_site2286]	8.84 ± 0.67
TGATTATACGCACGCGCACACACAACCAAAAAAAAA [CACACA_site3537]	8.7 ± 0.15
AAAAAAAAATACTACTGTACTTTTTTTGGACATCTA [XGTACX_site1096]	8.12 ± 0.22
AAAAAAGGAAAAGATACACACCGTAAATTAAAATTT [CACACA_site5908]	8.59 ± 0.4
GAAGGAATATACAATTGTACTTGGCAAAAAAAAAAA [XGTACX_site1884]	8.74 ± 0.67
ATATATTTATATATTACACACAATATTGTACAGATA [CACACA_site8215]	8.8 ± 0.31
AAATACTTGTCATATTGTACATGTTTGTGATATATA [XGTACX_site3185]	8.48 ± 0.32

Sequence	gcPBM binding intensity (ln)
GTTAAGAATATATAATGTACTTATTTTAATATAGTA [XGTACX_site6088]	8.09 ± 0.26
ATATATATATATATATGTACATATTGTATTAATTAT [XGTACX_site1919]	10.1 ± 0.39
TCTTTTAAACAGTACACACACACATCTATATTTATA [CACACA_site6559]	8.755 ± 0.078
CTCTGTTGTCTTAGTTGTACAATAGAAAAAAATAAT [XGTACX_site7043]	8.77 ± 0.39
TACAGGAATATTTTTACACACTAAAAATTATAAAAT [CACACA_site1649]	8.38 ± 0.38
TGATTGAGTAAAATGGGTACATATACACTATTACAT [XGTACX_site5232]	8.38 ± 0.38
TTTTTTACTTTTGAGACATTTCATATTTTTATTCAC [GTGCAC_negctrl_site730]	8.48 ± 0.49
ATATTGTATTTATGTACACACATTTTTGGAATATGA [CACACA_site4861]	9.11 ± 0.53
TTTTTTCTCTGTGGCTGTACTTTGAAGATATTTTAT [XGTACX_site8243]	8.92 ± 0.42
AAAGGTTCACATTATATAGTTATGTAATATATATGT [CACACA_negctrl_site542]	8.29 ± 0.4
TAAAATATATATATGTGTACATAACATATAATTTTT [XGTACX_site1725]	8.12 ± 0.25
TTATTTAGTATATTATGTACATACAATGCCTGGGAA [XGTACX_site4578]	8.79 ± 0.32
TATTGTTGTTCATGTACACACTATAATAAAAGCAAT [CACACA_site6148]	8.93 ± 0.39
AGTATAAAAATATATTTACACACTATATATATCGAA [CACACA_site8494]	8.46 ± 0.44
ATATGTTACAGACACACACACACATAAAAAAACAAA [CACACA_site3248]	8.84 ± 0.69
TTTTCATATTATAGTGCACACAAAAATATATATATG [CACACA_site8929]	9.35 ± 0.057
TATATTGAATGCAAAAGTACATTTGTGTAAATTTAT [XGTACX_site7611]	8.56 ± 0.33
TGATGGTTACGTTTATGTACACATTACAGTTAGTAT [XGTACX_site998]	8.34 ± 0.42
TTTTTTTTTTTAAAATGTACACGTAATTACATATAT [XGTACX_site752]	8.63 ± 0.42

Sequence	gcPBM binding intensity (ln)
TTTTTGTATTCTACCTTAACAATCTTAAAGATTTTT [CACACA_negctrl_site1157]	8.56 ± 0.34
GAGTTAATATTTAAAAGTACAAGATGAATGTAAAAA [XGTACX_site5810]	8.76 ± 0.46
AAAATATATTAAGGCACACACATACATATATATATA [CACACA_site3723]	9.86 ± 0.18
TTAAAAATTATATAAGTGCATTAATATTTAGAACAA [GTGCAC_site9773]	8.71 ± 0.028
ACTACATTATTGCATTGTACTTTTTTTTTTTTTTTA [XGTACX_site4605]	8.82 ± 0.4
TACTTACCAAAATACACACACACACCCAATATATAA [CACACA_site1871]	8.62 ± 0.51
TTAAAAATATATGAATGTACATATATTTATATATAT [XGTACX_site77]	8.5 ± 0.099
TTTAAATTATGAAATTGTACATATAAAAATATTTTA [XGTACX_site4796]	8.39 ± 0.3
TTTTTTTTATTAGTGTGTACGCATTTATTTATACAT [XGTACX_site1599]	8.86 ± 0.33
TATATATTATTTAAAACACACAAAAAAAAAAATTAT [CACACA_site89]	8.55 ± 0.45
ATATCGGGTGCATTAACACACATTTATTTGAATAAA [CACACA_site2350]	9.28 ± 1
TAAAATATAATAAAATGTACACGCATGCAATAGAAT [XGTACX_site7434]	9.99 ± 0.47
GCTTCTTAGTATACTTTATAAAATATATATTAAATA [XGTACX_negctrl_site57]	8.75 ± 0.47
ATATTAAATATAATTTGTACGCATTTTTTTTTTTTT [XGTACX_site1910]	8.46 ± 0.35
TTTATAAATATATATACACACACATATATATTATAT [CACACA_site8099]	8.42 ± 0.38
ATATATCATAATAGAGGTACACATATTATATATATA [XGTACX_site782]	8.96 ± 0.17
TTCCCTTTTTTTATTTGTACTTATCTTTTAAATAAT [XGTACX_site2497]	8.99 ± 0.47
AATTATAATTAATAGAGTACTGAATATATATATATA [XGTACX_site8683]	10 ± 0.33
AGCATTTTTCATTTTGCACACATGTTTTATGTGTAT [CACACA_site3454]	9.025 ± 0.007
